Some of the results follow. The main result of the screen is listed elsewhere. These columns were measured beside it and carry no call. The list favours compounds with an active or inconclusive main result.
Assay: beta-lactam sensitization of Mtb H37Rv, H37Rv (AID 434955);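 also: growth measured after seven days incubation then overnight dye step; 0% = bacteria only wells and 100% = bacteria with antibiotic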
Conditions: M. tuberculosis H37Rv growth with meropenem, percent inhibition; measured here: primary screen without meropenem; at 25 µM

Row | Structure (SMILES) | inhibition
1 | COc1ccc(C)c2sc(NC(=O)CCS(=O)(=O)c3ccccc3)nc12 | 1.8%
2 | CC(=O)Nc1ccc(NC(=O)c2c(-c3ccccc3)noc2C)cn1 | 1%
3 | N#C/C(=C/c1ccc(N2CCCCCC2)o1)c1cccc(F)c1 | 86.4%
4 | O=C(CC1C(=O)NCCN1Cc1ccc(F)cc1Cl)NC1CCCCCCC1 (stereo not given) | -6.59%
5 | Cc1ccc(NC(=S)NC(NC(=O)N(C)C)C(Cl)(Cl)Cl)cc1 (stereo not given) | -4.76%
6 | c1ccc(OCc2nnc(-c3ccccc3)o2)cc1 | 3.84%
7 | COc1cccc(C(=O)NC2CC(C)(C)Cc3c2cnn3-c2cccc(F)c2)c1OC (stereo not given) | 15.4%
8 | CC1CCc2nc(NC(=O)C3COc4ccccc4O3)sc2C1 (stereo not given) | 28.4%
9 | O=C(NC(=S)NC1CCSC1=O)c1ccc([N+](=O)[O-])cc1 (stereo not given) | -3.14%
10 | COc1ccc(C(=O)NCc2ncccc2C)cc1OC1CCN(C(C)=O)CC1 | -0.79%
11 | CC1(C(=O)OCC(=O)Nc2nc(-c3ccc(F)c(F)c3)cs2)CC1(Cl)Cl (stereo not given) | 49.9%
12 | CCN(CC)c1ccc(C(=O)n2cnc3ccccc32)cc1 | 36.1%
13 | N#Cc1ccccc1Cn1c(=O)n(Cc2ccc(C(=O)NCc3ccco3)cc2)c(=O)c2ccccc21 | 16.8%
14 | CCCn1cc(S(=O)(=O)c2ccc(OC)cc2)c(=O)c2cc(OCC)ccc21 | 5.94%
15 | c1ccc(-n2c3ccccc3c3ccccc32)cc1 | -3.15%
16 | CC(=O)N1c2ccc(S(=O)(=O)N3CCCC3C(=O)Nc3ccc(C)cc3)cc2CC1C (stereo not given) | 2.92%
17 | CC(C)CCSc1nc(N2CCOCC2)c2c(c1C#N)CC(C)(C)OC2 | 19.1%
18 | CCC(C)(C(=O)Nc1ccc2c(c1)OCCO2)N(C(C)=O)c1ccc(C(N)=O)cc1 (stereo not given) | 12.2%
19 | Cc1[nH]c(-c2ccccn2)nc(=S)c1Cl | 19.5%
20 | CCOc1ccc(NC(=O)/C(C#N)=C/c2cn(CC(=O)O)c3ccccc23)cc1 | 2.92%
21 | COc1ccc(C(=O)NC2CC2)cc1OC1CCN(Cc2ccc(F)cc2F)CC1 | -1.32%
22 | CC1(C)Cc2c(sc(NC(=O)C(=O)N3CCCCC3)c2C(=O)O)CO1 | 6.59%
23 | CCN(CC)C(=O)CSc1nnc2nnc3cc(OC)ccc3n12 | 33.1%
24 | CCOc1cccc(-c2nn3c(-c4ccccn4)nnc3s2)c1 | -11.7%
25 | Clc1ccc(CSc2ccc(-c3cccnc3)nn2)cc1 | 8.68%
26 | O=c1oc2cc(O)ccc2cc1S(=O)(=O)c1ccccc1 | -3.77%
27 | Cc1ccc(-c2nc(N)sc2-c2ccccc2)cc1C | 11.1%
28 | O=C(NC1CCCCC1)c1cccc(OCc2ccccc2)c1 | -3.37%
29 | CC1=C(C(=O)Nc2ccc(C)cc2)C(c2ccc(N(C)C)cc2)NC(=O)N1 (stereo not given) | 2.17%
30 | CCCCc1nc(C(N)=O)c2[nH]c(=O)n(-c3ccccc3F)c2n1 | 5.14%
